Results from the supplement of paper PMC7826260.
This is one part of the list. Viral Rep nickase domains cut single-stranded DNA in vitro for 1 h at 37 °C with 3 µM enzyme; only the middle of the 90-letter strands is printed. Uncut reads are compared with the no-enzyme pool on a log2 scale; the lower, the more was cut; hits are not called. Because reads are shares of a total, they shift together, so uncut sequences can rise above 0 when many others are cut.

Columns and labels:
Assay in all cases: uncleaved DNA left, log2 of reads against the no-enzyme library (log2 ratio); higher = less cleavage (more negative = more Rep cleavage of the k-mer); sequences stand for … in CTCGTCCG…ACCGGAGA
[1] = test system: T1, Rep nickase domain of Muscovy duck circovirus
T1 sequence (residues 1-111, tag not shown): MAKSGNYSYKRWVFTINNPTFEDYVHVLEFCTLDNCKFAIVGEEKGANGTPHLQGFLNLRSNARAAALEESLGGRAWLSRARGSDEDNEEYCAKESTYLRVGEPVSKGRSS
Experimental: (§1)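 A pool of 90-nt single-stranded DNAs with seven random bases just before the constant AC of the nick site (name = the seven bases) was cut by 3 µM recombinant His6-SUMO-tagged Rep nickase domain (300 nM DNA, 50 mM HEPES pH 8.0, 50 mM NaCl, 1 mM MnCl2, 1 h, 37 °C, three replicates). Uncut DNA was amplified and sequenced.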

[2] = test system: T2, Rep nickase domain of banana bunchy top virus
T2 sequence (residues 1-94, tag not shown): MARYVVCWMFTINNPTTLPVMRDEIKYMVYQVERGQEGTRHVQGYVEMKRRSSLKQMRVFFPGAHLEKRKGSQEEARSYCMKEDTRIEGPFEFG
Experimental: as §1

[3] = test system: T3, Rep nickase domain of cabbage leaf curl virus
T3 sequence (residues 1-116, tag not shown): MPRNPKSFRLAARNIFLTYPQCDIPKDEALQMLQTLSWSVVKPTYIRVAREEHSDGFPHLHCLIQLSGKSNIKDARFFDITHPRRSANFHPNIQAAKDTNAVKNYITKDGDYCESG
Experimental: as §1

[4] = test system: T4, Rep nickase domain of chickpea chlorotic dwarf virus
T4 sequence (residues 1-124, tag not shown): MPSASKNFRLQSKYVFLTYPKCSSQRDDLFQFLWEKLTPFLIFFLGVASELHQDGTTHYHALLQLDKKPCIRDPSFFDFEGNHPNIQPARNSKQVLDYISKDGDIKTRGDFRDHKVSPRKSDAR
Experimental: as §1

[5] = test system: T5, Rep nickase domain of faba bean necrotic yellows virus
T5 sequence (residues 1-98, tag not shown): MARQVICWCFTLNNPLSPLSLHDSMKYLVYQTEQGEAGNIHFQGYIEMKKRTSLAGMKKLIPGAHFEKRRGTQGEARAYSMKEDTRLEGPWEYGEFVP
Experimental: as §1

[6] = test system: T6, Rep nickase domain of maize striate mosaic virus
T6 sequence (residues 1-117, tag not shown): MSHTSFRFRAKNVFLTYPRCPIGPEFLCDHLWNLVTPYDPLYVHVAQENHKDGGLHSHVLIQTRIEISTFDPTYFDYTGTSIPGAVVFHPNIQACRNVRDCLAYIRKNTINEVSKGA
Experimental: as §1

[7] = test system: T7, Rep nickase domain of porcine circovirus 2
T7 sequence (residues 2-116, tag not shown): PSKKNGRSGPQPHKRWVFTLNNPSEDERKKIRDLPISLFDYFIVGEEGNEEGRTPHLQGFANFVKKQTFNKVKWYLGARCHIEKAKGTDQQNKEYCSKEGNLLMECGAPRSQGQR
Experimental: as §1

[8] = test system: T8, Rep nickase domain of tomato golden mosaic virus
T8 sequence (residues 1-124, tag not shown): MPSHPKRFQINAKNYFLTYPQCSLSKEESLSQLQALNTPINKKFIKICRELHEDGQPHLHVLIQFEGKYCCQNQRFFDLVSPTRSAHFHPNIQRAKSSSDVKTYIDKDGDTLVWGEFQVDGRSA
Experimental: as §1

[9] = test system: T9, Rep nickase domain of tomato yellow leaf curl virus
T9 sequence (residues 1-136, tag not shown): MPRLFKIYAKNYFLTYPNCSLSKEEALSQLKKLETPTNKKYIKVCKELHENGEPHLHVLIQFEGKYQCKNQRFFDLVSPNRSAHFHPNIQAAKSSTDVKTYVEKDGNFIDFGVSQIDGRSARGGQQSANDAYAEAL
Experimental: as §1

[10] = test system: T10, Rep nickase domain of wheat dwarf virus
T10 sequence (residues 1-137, tag not shown): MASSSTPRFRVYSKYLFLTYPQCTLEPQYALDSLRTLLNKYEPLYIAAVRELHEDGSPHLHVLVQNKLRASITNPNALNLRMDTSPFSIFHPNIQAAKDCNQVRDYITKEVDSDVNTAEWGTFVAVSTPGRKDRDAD
Experimental: as §1

Sequence	uncleaved DNA left (log2) [1]	uncleaved DNA left (log2) [2]	uncleaved DNA left (log2) [3]	uncleaved DNA left (log2) [4]	uncleaved DNA left (log2) [5]	uncleaved DNA left (log2) [6]	uncleaved DNA left (log2) [7]	uncleaved DNA left (log2) [8]	uncleaved DNA left (log2) [9]	uncleaved DNA left (log2) [10]
AATCGTC	0.0292	-0.14	-0.00625	-0.507	-0.0355	-1.03	-0.0517	-0.0683	-0.0683	-0.000193
GTGTGTA	0.0731	0.112	0.292	0.864	0.00986	1.68	0.0229	0.166	0.166	0.0849
TTGGGAT	-0.112	-0.0566	0.157	1.52	-0.0933	1.77	0.0803	-0.0928	-0.0573	0.0552
CTAAAAA	0.00614	0.13	0.138	0.0363	0.092	-0.698	0.129	0.0982	0.0311	0.149
TCGTAAG	0.0284	-0.136	-0.421	-0.557	-0.0978	-1.1	-0.0167	0.00683	-0.0301	-0.131
GGATATA	0.0615	-0.0441	0.714	1.7	0.0344	2.1	0.166	-0.123	0.0452	0.196
AGCTCGC	0.0617	0.0557	-0.241	-0.179	0.0146	-0.709	-0.0191	-0.114	-0.00851	0.0546
TTCTGGT	-0.263	-0.0234	0.254	0.219	0.0353	0.714	-1.17	0.0613	0.16	0.0513
TCAGCCG	-0.0892	-0.116	-0.859	-0.438	-0.0546	-0.995	0.0778	-0.0818	-0.0376	-0.126
ATTTGGT	-0.571	-0.425	-0.123	-0.0856	-0.0211	-0.256	-1.55	-0.1	-0.0401	-0.0872
CTGAAAA	0.0722	0.076	0.119	0.142	0.0593	-0.458	0.193	0.0539	0.061	0.243
GGTGTTT	-0.00356	-0.0332	0.469	0.867	-0.0706	1.71	0.0601	-0.0531	0.119	0.118
CCCTAAC	-0.00669	-0.0669	-0.34	-1.53	-0.11	-0.859	-0.0651	-0.00679	0.0299	-0.036
ACGAGCG	-0.222	-0.0143	-0.878	-0.396	-0.119	-1.09	-0.0375	-0.129	-0.0588	-0.104
CGTGCAG	-0.0545	-0.121	-0.794	-0.46	-0.00538	-0.859	0.0707	-0.0495	-0.00631	-0.246
CCGCACG	0.0973	-0.0739	-0.501	-0.174	-0.0517	-0.787	0.0897	-0.0531	0.0495	0.0199
AATCGGC	0.0898	0.125	-0.0869	-0.221	0.0341	-0.691	0.215	0.071	0.00361	0.139
CCGTCCC	-0.108	-0.0242	0.135	-0.0907	-0.12	0.0662	-0.199	-0.00948	-0.0805	-0.0545
CCCGTAG	0.172	0.148	-0.632	-0.231	0.0421	-1.31	0.223	0.042	0.026	0.0422
CATCCGC	0.0621	0.0262	-0.454	-0.677	0.0324	-1.2	0.0618	-0.0166	-0.00495	-0.0585
GAAAAAC	0.115	0.119	0.35	0.457	0.00206	0.37	0.128	0.0929	0.105	0.137
TTGGGAA	0.0729	0.0752	0.492	1.35	-0.0167	1.25	0.2	-0.0634	0.0414	0.169
GGTAGCG	0.0766	0.0546	-0.581	0.557	0.0331	-0.518	0.181	0.0852	0.0879	0.0219
GCAAGAG	-0.0695	-0.121	-0.513	-0.232	-0.0176	-0.872	0.152	-0.0292	-0.0107	-0.0962
CTTACCG	-0.0183	-0.0128	-0.918	-1.72	0.117	-0.959	0.0636	-0.0605	-0.0207	-0.195
GATCCAT	0.0649	0.0398	0.405	0.69	-0.0194	1.3	0.0817	-0.0324	0.141	0.261
CGAGCAA	-0.0761	-0.0122	-0.0582	0.229	0.108	0.238	-1.22	0.0809	0.117	0.00545
CCCACTA	-0.032	-0.0392	0.00175	-1.42	0.049	-0.509	-0.119	-0.0603	0.0737	0.0246
AGAGCTA	0.113	0.0145	0.0254	0.168	0.035	0.712	-0.42	0.169	0.0234	0.0419
AGCTCCG	-0.116	-0.0747	-0.549	-0.502	-0.122	-1.08	-0.0144	-0.0943	-0.198	-0.145
